Experimental findings from FireProtDB (doi:10.1006/jmbi.2001.4482) are described below.

For the data set the following is noted: Homo sapiens; pH 6.5; 25 °C; GdnHCl; Fluorescence; Mes 10 mM; reversible: Unknown.

Regarding “Interleukin-1 beta wild type (no sequence given)”, the denaturant m value came out at 5.5 kcal/mol/M and the unfolding free energy turned out to be 7.6 kcal/mol.
